Results taken from article PMC9911399, “Two distinct binding modes provide the RNA-binding protein RbFox with extraordinary sequence specificity”.
Residue numbers refer to the chain shown, from its start. Some of the results follow.

T1: RBFOX1 RRM (Homo sapiens, UniProt Q9NWB1 109-208)
T1 sequence: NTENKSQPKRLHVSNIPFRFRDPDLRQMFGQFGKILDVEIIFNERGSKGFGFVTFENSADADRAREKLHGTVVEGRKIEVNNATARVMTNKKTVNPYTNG

B1: UUCACCA (DNA:RNA)
RNA: GGGAGACCGGAAUUCAGAUUGUCCUUCACCAUUAAAUCCCGUCGUAGCCACCA
DNA 1: CAATCTGAATTCCGGTCTCCC
DNA 2: TGGTGGCTACGACGGGATT
B2: UAGAUCU (DNA:RNA)
RNA: B1 RNA with U26A, C27G, C29U, A31U
DNA 1: CAATCTGAATTCCGGTCTCCC
DNA 2: TGGTGGCTACGACGGGATT
B3: GGGAGAU (DNA:RNA)
RNA: B1 RNA with U25G, U26G, C27G, C29G, C30A, A31U
DNA 1: CAATCTGAATTCCGGTCTCCC
DNA 2: TGGTGGCTACGACGGGATT
B4: GAGCACC (DNA:RNA)
RNA: B1 RNA with U25G, U26A, C27G, A28C, C29A, A31C
DNA 1: CAATCTGAATTCCGGTCTCCC
DNA 2: TGGTGGCTACGACGGGATT
B5: UUUGAGG (DNA:RNA)
RNA: B1 RNA with C27U, A28G, C29A, C30G, A31G
DNA 1: CAATCTGAATTCCGGTCTCCC
DNA 2: TGGTGGCTACGACGGGATT
B6: GAUCAGA (DNA:RNA)
RNA: B1 RNA with U25G, U26A, C27U, A28C, C29A, C30G
DNA 1: CAATCTGAATTCCGGTCTCCC
DNA 2: TGGTGGCTACGACGGGATT
B7: AGUAUGC (DNA:RNA)
RNA: B1 RNA with U25A, U26G, C27U, C29U, C30G, A31C
DNA 1: CAATCTGAATTCCGGTCTCCC
DNA 2: TGGTGGCTACGACGGGATT
B8: GAUUUAC (DNA:RNA)
RNA: GGGAGACCGGAAUUCAGAUUGUCCGAUUUACUUAAAUCCCGUCGUAGCCACCA
DNA 1: CAATCTGAATTCCGGTCTCCC
DNA 2: TGGTGGCTACGACGGGATT
B9: UGAGUCU (DNA:RNA)
RNA: B1 RNA with U26G, C27A, A28G, C29U, A31U
DNA 1: CAATCTGAATTCCGGTCTCCC
DNA 2: TGGTGGCTACGACGGGATT
B10: AACACUU (DNA:RNA)
RNA: B1 RNA with U25A, U26A, C30U, A31U
DNA 1: CAATCTGAATTCCGGTCTCCC
DNA 2: TGGTGGCTACGACGGGATT
B11: GCGAAGG (DNA:RNA)
RNA: B8 RNA with A26C, U27G, U28A, U29A, A30G, C31G
DNA 1: CAATCTGAATTCCGGTCTCCC
DNA 2: TGGTGGCTACGACGGGATT
B12: UCCUAAG (DNA:RNA)
RNA: B8 RNA with G25U, A26C, U27C, U29A, C31G
DNA 1: CAATCTGAATTCCGGTCTCCC
DNA 2: TGGTGGCTACGACGGGATT
B13: CAGUACU (DNA:RNA)
RNA: B8 RNA with G25C, U27G, U29A, A30C, C31U
DNA 1: CAATCTGAATTCCGGTCTCCC
DNA 2: TGGTGGCTACGACGGGATT
B14: ACCGGGG (DNA:RNA)
RNA: B1 RNA with U25A, U26C, A28G, C29G, C30G, A31G
DNA 1: CAATCTGAATTCCGGTCTCCC
DNA 2: TGGTGGCTACGACGGGATT
B15: UUUGGCG (DNA:RNA)
RNA: B1 RNA with C27U, A28G, C29G, A31G
DNA 1: CAATCTGAATTCCGGTCTCCC
DNA 2: TGGTGGCTACGACGGGATT
B16: CUUUGCG (DNA:RNA)
RNA: B8 RNA with G25C, A26U, U29G, A30C, C31G
DNA 1: CAATCTGAATTCCGGTCTCCC
DNA 2: TGGTGGCTACGACGGGATT
B17: CGUUGCU (DNA:RNA)
RNA: B8 RNA with G25C, A26G, U29G, A30C, C31U
DNA 1: CAATCTGAATTCCGGTCTCCC
DNA 2: TGGTGGCTACGACGGGATT
B18: GGUUGCU (DNA:RNA)
RNA: B8 RNA with A26G, U29G, A30C, C31U
DNA 1: CAATCTGAATTCCGGTCTCCC
DNA 2: TGGTGGCTACGACGGGATT
B19: UCAAAGG (DNA:RNA)
RNA: B1 RNA with U26C, C27A, C29A, C30G, A31G
DNA 1: CAATCTGAATTCCGGTCTCCC
DNA 2: TGGTGGCTACGACGGGATT
B20: UACCGAU (DNA:RNA)
RNA: B8 RNA with G25U, U27C, U28C, U29G, C31U
DNA 1: CAATCTGAATTCCGGTCTCCC
DNA 2: TGGTGGCTACGACGGGATT
B21: GUUGCUA (DNA:RNA)
RNA: B1 RNA with U25G, C27U, A28G, C30U
DNA 1: CAATCTGAATTCCGGTCTCCC
DNA 2: TGGTGGCTACGACGGGATT
B22: GUCGACA (DNA:RNA)
RNA: B1 RNA with U25G, A28G, C29A
DNA 1: CAATCTGAATTCCGGTCTCCC
DNA 2: TGGTGGCTACGACGGGATT
B23: UGACGUU (DNA:RNA)
RNA: B1 RNA with U26G, C27A, A28C, C29G, C30U, A31U
DNA 1: CAATCTGAATTCCGGTCTCCC
DNA 2: TGGTGGCTACGACGGGATT
B24: GCAUACA (DNA:RNA)
RNA: B8 RNA with A26C, U27A, U29A, A30C, C31A
DNA 1: CAATCTGAATTCCGGTCTCCC
DNA 2: TGGTGGCTACGACGGGATT
B25: UACAUUU (DNA:RNA)
RNA: B1 RNA with U26A, C29U, C30U, A31U
DNA 1: CAATCTGAATTCCGGTCTCCC
DNA 2: TGGTGGCTACGACGGGATT
B26: UACAAUA (DNA:RNA)
RNA: B1 RNA with U26A, C29A, C30U
DNA 1: CAATCTGAATTCCGGTCTCCC
DNA 2: TGGTGGCTACGACGGGATT
B27: UGCCUGA (DNA:RNA)
RNA: B1 RNA with U26G, A28C, C29U, C30G
DNA 1: CAATCTGAATTCCGGTCTCCC
DNA 2: TGGTGGCTACGACGGGATT
B28: CGUGGAA (DNA:RNA)
RNA: B8 RNA with G25C, A26G, U28G, U29G, C31A
DNA 1: CAATCTGAATTCCGGTCTCCC
DNA 2: TGGTGGCTACGACGGGATT
B29: GAAGGAA (DNA:RNA)
RNA: B8 RNA with U27A, U28G, U29G, C31A
DNA 1: CAATCTGAATTCCGGTCTCCC
DNA 2: TGGTGGCTACGACGGGATT
B30: CGGACCA (DNA:RNA)
RNA: B1 RNA with U25C, U26G, C27G
DNA 1: CAATCTGAATTCCGGTCTCCC
DNA 2: TGGTGGCTACGACGGGATT
B31: CAAGGGG (DNA:RNA)
RNA: B8 RNA with G25C, U27A, U28G, U29G, A30G, C31G
DNA 1: CAATCTGAATTCCGGTCTCCC
DNA 2: TGGTGGCTACGACGGGATT

These binders were tested against T1, RBFOX1 RRM (assay: EMSA; HiTS-Eq, 1 nM pool, 10 min; buffer printed only for the single-RNA assays: 10 mM Tris pH 7.5, 150 mM NaCl, 3.4 mM EDTA, 0.001% NP-40, 30 C). Details: tags: His6 N-terminal (pET28a); label: 5' 32P.
How it was run: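 Purified RbFox RRM, wild type or mutant, was incubated for 10 min in 50 µL with 1 nM of a 5′-radiolabelled RNA pool carrying 7 randomized nucleotides, whose flanks were annealed to DNA oligonucleotides, over a series of increasing protein concentrations. Unbound RNA was resolved on 8% native PAGE, cut out, reverse-transcribed, barcoded by PCR and sequenced on an Illumina HiSeq 2500. Relative association constants were derived from changes in read counts for each RNA species versus the control reaction and normalised to the cognate motif.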

Binder	binding signal
B1	0.00293 KA relative to UGCAUGU
B2	0.0116 KA relative to UGCAUGU
B3	0.0316 KA relative to UGCAUGU
B4	0.00895 KA relative to UGCAUGU
B5	0.00903 KA relative to UGCAUGU
B6	0.00955 KA relative to UGCAUGU
B7	0.0206 KA relative to UGCAUGU
B8	0.00808 KA relative to UGCAUGU
B9	0.0175 KA relative to UGCAUGU
B10	0.000573 KA relative to UGCAUGU
B11	0.0178 KA relative to UGCAUGU
B12	0.0102 KA relative to UGCAUGU
B13	0.00554 KA relative to UGCAUGU
B14	0.0132 KA relative to UGCAUGU
B15	0.0217 KA relative to UGCAUGU
B16	0.0182 KA relative to UGCAUGU

Binder	binding signal
B17	0.0216 KA relative to UGCAUGU
B18	0.0267 KA relative to UGCAUGU
B19	0.00677 KA relative to UGCAUGU
B20	0.00545 KA relative to UGCAUGU
B21	0.0141 KA relative to UGCAUGU
B22	0.00951 KA relative to UGCAUGU
B23	0.023 KA relative to UGCAUGU
B24	0.0045 KA relative to UGCAUGU
B25	0.00213 KA relative to UGCAUGU
B26	0.00256 KA relative to UGCAUGU
B27	0.0398 KA relative to UGCAUGU
B28	0.0142 KA relative to UGCAUGU
B29	0.00974 KA relative to UGCAUGU
B30	0.0131 KA relative to UGCAUGU
B31	0.00379 KA relative to UGCAUGU
